From the supplement of paper PMC10126150
Values marked as one replicate rest on one cluster of the flow cell; about a third of the high ones do not repeat.

Tested on: ATP
Test: switch fluorescence ratio, 500 uM ATP over buffer (Cy3 cluster intensity, sum of 5 cycles each) (fold (ratio)); higher = stronger signal-on switching upon ATP binding; sequences stand for … in TCGTCGGCAGCGTCAGATGTGTATAAGAGACAGTTTTTTTTTTTTTTTTTTTTTTTTT…TC
Conditions: aptamer strand: ATP DNA aptamer (quencher-CACCTGGGGGAGTATTGCGGAGGAAGG + anchor), 100 nM annealed; ATP concentration: 500 uM; one replicate
How it was run: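 Clusters with intensities outside 100-1000 RFU were excluded. The remaining Cy3-labelled switching-strand clusters on a modified Illumina MiSeq flow-cell had been annealed to 100 nM quencher-labelled ATP aptamer and imaged in selection buffer, then after 15 min with 500 uM ATP at 22 °C, for five cycles separated by NaOH stripping and re-annealing. The fluorescence ratio, averaged per switch-domain sequence, is each cluster's summed target-cycle Cy3 intensity over its summed buffer-cycle Cy3 intensity.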
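Further: ATP exposure 15 min at 22 °C before imaging.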

Row | Sequence | switch fluorescence ratio
1 | TGCTCTTGGC | 1
2 | TGTGTAATTC | 1.01
3 | TCGTAACGGA | 0.988
4 | TTACGTATG | 1.01
5 | ACGGAGAACT | 1.07
6 | GGTTGGAGCT | 0.987
7 | TTGCTCCTTC | 1.09
8 | CTCGGAAATA | 1.34
9 | ACAGTCCCCT | 1.04
10 | CCTGACATT | 1.01
11 | AAACGGACTT | 1.22
12 | TTCCGAAGTC | 2.66
13 | CTTGAGGTAC | 0.977
14 | GAAGAACTGA | 1.03
15 | CTTCGGGGGC | 1.04
16 | TTATTAACGG | 1.02
17 | CCGTTATGGT | 1.02
18 | CAGATCCACT | 0.988
19 | CCAGGTTGGG | 1.09
20 | TGTGGATGGC | 1.03
21 | GACAGAAGCC | 1.05
22 | TGCTACAGCC | 1.07
23 | TGCTCCTCGC | 1.15

Row | Sequence | switch fluorescence ratio
24 | TTACGTGTCC | 1.05
25 | GGTTGTGGAT | 0.975
26 | ATGGGTGGCA | 0.958
27 | CTCTGCTGGG | 1.49
28 | CTCTGGGCAC | 1.33
29 | GTACTGCCTA | 1.01
30 | TAGGCGGC | 0.998
31 | GACGCAGAAG | 1.96
32 | TCAAGTTCGG | 0.988
33 | AGAGGATGAC | 1.04
34 | CATTATAAGC | 1.13
35 | CATAGCTAGA | 1.05
36 | CCTACTCTCG | 1.09
37 | TTATCATCAT | 1.03
38 | CAAATGGCCG | 1.15
39 | GCCATGGGTC | 0.961
40 | ATGGGCGTC | 1.01
41 | TTGAAAATTC | 1.02
42 | ATAGTGTCGA | 1.01
43 | GATTCATTTC | 0.976
44 | ATTAAATGTG | 0.972
45 | TACTCAATTG | 0.941
46 | GACGTGCGTA | 1.04

Row | Sequence | switch fluorescence ratio
47 | TCGGGATGTG | 1.02
48 | GGTCGCAATA | 1.09
49 | ATCTGCGTCC | 1.05
50 | ACAGGTCTTA | 1.02
51 | TCGCGACTAT | 1.01
52 | GTGCAGGGGA | 1.02
53 | AATAGGTGAA | 1.02
54 | TTATCTGGCT | 1.03
55 | GAGCACCACG | 1.06
56 | TGACATTTCC | 1.15
57 | CCGTGAGCCA | 2.13
58 | CCTTGGTTT | 1.02
59 | AAAAACTT | 1.01
60 | AGTAGGTCGA | 1.01
61 | ATTCTTTTCC | 1.01
62 | TTGATGCTAG | 0.997
63 | TAATGCCCTG | 1.01
64 | AGACGCTTAT | 1.18
65 | TTGCCTGGGA | 1.02
66 | CAAACGCGAA | 4.27
67 | TTGCCAATGG | 1.03
68 | CGAGAATTGG | 0.997
69 | ATCGGAAAGA | 1.02

Row | Sequence | switch fluorescence ratio
70 | CCAATGGGTA | 1.03
71 | ACGCATATAG | 4.28
72 | TGGGTATTAA | 1.03
73 | AACTTGTTGA | 1
74 | GCACGAACGG | 1.36
75 | AGGTTCTAG | 0.972
76 | CCTCCAAAGG | 3.25
77 | AACTTCATTA | 0.996
78 | CAATGTGGAC | 1.07
79 | GCGGGATACT | 1.99
80 | TAGCGACGTC | 0.979
81 | GGTGGCTCCC | 0.985
82 | ATGGGCAGT | 0.993
83 | AGGTGTGGTA | 0.995
84 | CTCGTGAGAG | 0.97
85 | TCCCCTGCTC | 1.58
86 | AGCGATGGGG | 1.05
87 | CTTATGGCAT | 1.01
88 | CAAGTAGTCT | 1.06
89 | CGTCAAGGCG | 0.993
90 | GTCACAGTTA | 1.04
91 | TATTTTAGAT | 0.979
92 | CATATAAGTT | 1.01

Row | Sequence | switch fluorescence ratio
93 | TCACCTAAAT | 1.02
94 | ACCCCGGCTG | 1.34
95 | AGTAGCTGGG | 0.97
96 | CAAGTCCTAC | 1.03
97 | CCCTAAATTG | 0.959
98 | GACTAGTCTC | 1.02
99 | GCAACTGGAA | 1.06
100 | GGCCGGAGTT | 1.03
101 | TCCATTGATC | 0.991
102 | TATTGGGTCC | 0.985
103 | TATTGGGCCA | 1.02
104 | TCCACCCGAT | 1.16
105 | AAGATCTGAG | 1
106 | GGCCGAAAAT | 1.07
107 | CTATATGAGC | 0.991
108 | CCTGATAAAA | 0.996
109 | TATCGCAAGC | 4.09
110 | GCGCGCACGT | 1.02
111 | TCGACTAAGT | 1.01
112 | TACTACATGC | 0.967
113 | CTGCGCATGT | 1.87
114 | CGTAGATAAG | 1.01
115 | TCGAGTTC | 1.04

Row | Sequence | switch fluorescence ratio
116 | ATGGGAGCGG | 1
117 | ATTCTCATGT | 1
118 | AGGATAGCCC | 0.996
119 | GGCGTGCAGA | 1.01
120 | TTTGCTTACT | 3.57
121 | GCCCTAGTGG | 1.03
122 | CCTGCTGAAC | 2.43
123 | TTGGCGTACT | 1.04
124 | TACTGAGTGT | 1.04
125 | ATTTTCGCGC | 1.14
126 | TGATTGCGGT | 0.987
127 | GATCGTGGGG | 0.967
128 | TGATGTTAAC | 0.995
129 | CCACTATCAC | 1.38
130 | GTCCTGTGGA | 1.14
131 | CGATTTTAGC | 0.99
132 | CGAGATTGTA | 0.969
133 | CGGCGCCGGC | 1.02
134 | GTATTCACAT | 1.02
135 | GTCCCACGCG | 1
136 | GATTTTATGC | 1.1
137 | GTTACGCAT | 3.14
138 | TGCCAGAACG | 0.99

Row | Sequence | switch fluorescence ratio
139 | TTGTAGCTGG | 1.02
140 | ATAAGCCCAG | 1.06
141 | CCCGGGCGCG | 1.12
142 | ATCAAGGGAG | 0.958
143 | GAAGGATGGC | 0.948
144 | CGGCGGAAGG | 1.02
145 | ATGTCAGAGC | 1.01
146 | ACCCGCCATT | 1.49
147 | ACTTGGGCTC | 0.984
148 | CATTGAAGTC | 0.944
149 | CCGGTTCGGC | 1.03
150 | GAGACATGTG | 1.11
151 | TTGTCTGGCA | 0.984
152 | TAAGAGTTGA | 0.972
153 | ACTACCTC | 1.16
154 | GTTCTAAGTG | 0.992
155 | GTGGATAAGC | 0.988
156 | TATAAGGTT | 1.04
157 | TGCAGGCGAT | 1.01
